Here are results for 31 variants from the supplement of paper PMC11876631.

To fix the notation:
B1: lysA; a variant is named by its letters at X, in order (parent)
chain: MPHSLFSTDTDLTAENLLRLPAEFGCPXWXYDAQIIRRQIAALKQFDVVRFAQKACSNIHILRLMREQGVKVDSVSLGEIERALAAGYNPQTHPDDIXXTADVIDQATLERVSELQIPVNAGSVDMLDQLGQVSPGHRVWLRVNPGFGHGHSQKTNTGGENSKHGIWYTDLPAALDVIQRHHLQLVGIHMHIGSGVDYAHLEQXCGAMVRQVIEFGQDLQAISAGGGLSVPYQQGEEAVDTEHYYGLWNAAREQIARHLGHPVKLEIEPGRFLVAQSGVXXTQVRSVKQMGSRHFVLVDAGFNDLMRPAMYGSYHHISALAADGRSLEHAPTVETVVAGPLCESGDVFTQQEGGNVETRALPEVKAGDYLVLHDTGAYGASMSSNYNSRPLLPEVLFDNGQARLIRRRQTIEELLALELL
B2: aroE; numbered along this chain (parent)
chain: METYAVFGNPIAHSKSPFIHQQFAQQLNIEHPYGRVLAPINDFINTLNAFFSAGGKGANVTVPFKEEAFARADELTERAALAGAVNTLMRLEDGRLLGDNTDGVGLLSDLERLSFIRPGLRILLIGAGGASRGVLLPLLSLDCAVTITNRTVSRAEELAKLFAHTGSIQALSMDELEGHEFDLIINATSSGISGDIPAIPSSLIHPGIYCYDMFYQKGKTPFLAWCEQRGSKRNADGLGMLVAQAAHAFLLWHGVLPDVEPVIKQLQEELSA

± gives the standard deviation of the averaged measurements. Laboratory Escherichia coli strains with one amino-acid change in an essential protein, pooled on minimal glucose agar with carbenicillin or gentamicin at twice the control MIC (plus kanamycin and chloramphenicol for the plasmids), 48 h. Fold change of barcode share against drug-free plates; higher = less susceptible. Active = above 20 in both replicates (the paper's putatively resistant). '<' = one read or none on drug, '>' = one read or none on a drug-free plate. Shares are relative, so most strains fall below 1 when a few take over. Listed are strains with at least 15 reads on both drug-free plates, and hits; most hits rest on fewer reference reads. Replicate rank correlation about 0.5. Edits are read from barcodes.

In the first data set the parent is B1. In words: barcode share on antibiotic plates over drug-free plates; higher = less susceptible. The following applies: with Escherichia coli (laboratory strain); antibiotic: carbenicillin; 2× MIC (3.1 µg/mL). The procedure:
(§1)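 A pool of E. coli strains, each edited to carry one amino-acid change in an essential protein, was grown for 48 h on minimal glucose agar with or without antibiotic; strain barcodes were sequenced; mean of two replicates.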
Turning to VVVFVLD, the “fold change of barcode share” value turned out to be 0.525 ± 0.064.
For the variant VVVFVLP, the “fold change of barcode share” value amounted to 0.631 ± 0.41.
Turning to VVVFVLW, the “fold change of barcode share” value came out at 0.621 ± 0.13.
Take VVVFVLA: the “fold change of barcode share” value is 0.39 ± 0.084.
With VVVFVLQ, the “fold change of barcode share” value is 0.828 ± 0.18.
For VVVFALI, the “fold change of barcode share” value amounted to 0.631 ± 0.54.
With VVVFVAI, the “fold change of barcode share” value is 0.376 ± 0.014.
For VVWFVLI, the “fold change of barcode share” value came out at 0.728 ± 0.016.
Take VVVFQLI: the “fold change of barcode share” value was found to be 0.872 ± 0.33.
Regarding VVVAVLI, the “fold change of barcode share” value turned out to be 0.92 ± 0.19.
As for VVVPVLI, the “fold change of barcode share” value amounted to 0.444 ± 0.048.
On the same count and under the same terms, for VPVFVLI the value was 0.423 ± 0.065.
For VDVFVLI, the “fold change of barcode share” value was found to be 0.594 ± 0.094.
In the case of VVDFVLI, the “fold change of barcode share” value came to 1.527 ± 0.0064.
VVPFVLI: the “fold change of barcode share” value stood at 0.484 ± 0.042.
Take VVVWVLI: the “fold change of barcode share” value is 0.547 ± 0.078.
Consider VVVQVLI, for which the “fold change of barcode share” value turned out to be 0.402 ± 0.068.
Turning to VVVFVQI, the “fold change of barcode share” value came to 0.7 ± 0.29.
In the case of WVVFVLI, the “fold change of barcode share” value was found to be 0.512 ± 0.078.
Regarding VVVFVLI V296Q, the “fold change of barcode share” value was found to be 0.285 ± 0.14.
Turning to VVVFVLI V296W, the “fold change of barcode share” value turned out to be 0.262 ± 0.057.
For the variant VVVDVLI, the “fold change of barcode share” value amounted to 0.533 ± 0.2.
Take VVAFVLI: the “fold change of barcode share” value came to 0.546 ± 0.16.
For the variant VVQFVLI, the “fold change of barcode share” value worked out at 0.4 ± 0.03.
Regarding VQVFVLI, the “fold change of barcode share” value is 0.527 ± 0.15.

The data set is the same for the next values; noted with them: with Escherichia coli (laboratory strain); antibiotic: gentamicin; 2× MIC (MIC 0.45 µg/mL).
On to VVVFVLD, for which the “fold change of barcode share” value worked out at 0.0348 ± 0.036.
Turning to VVVFVLP, the “fold change of barcode share” value amounted to 0.0477 ± 0.058.
Same read-out and setting: for VVVFVLW the value was 0.0462 ± 0.06; for VVVFVLA, 0.0565 ± 0.071; for VVVFVLQ, 0.0435 ± 0.053.
For the variant DVVFVLI, the “fold change of barcode share” value amounted to 0.0177 ± 0.022.
PVVFVLI: the “fold change of barcode share” value turned out to be 0.0234 ± 0.025.
In the case of VVVFALI, the “fold change of barcode share” value was 0.0382 ± 0.045.
On the same count and under the same terms, to VVVFVAI belongs 0.305 ± 0.36; to VVWFVLI, 0.0314 ± 0.035; to VVVFQLI, 0.0725 ± 0.051.
As for VVVAVLI, the “fold change of barcode share” value came to 0.0185 ± 0.024.
For the variant VVVPVLI, the “fold change of barcode share” value was determined as 0.0415 ± 0.05.
As to VPVFVLI, the “fold change of barcode share” value came to 0.0286 ± 0.026.
As for QVVFVLI, the “fold change of barcode share” value turned out to be 0.0264 ± 0.025.
With VDVFVLI, the “fold change of barcode share” value came out at 0.117 ± 0.16.
The same measure, in the same setting: to VVDFVLI belongs 0.0315 ± 0.039; to VVPFVLI, 0.0277 ± 0.022; to VVVWVLI, 0.0753 ± 0.019.
In the case of VVVQVLI, the “fold change of barcode share” value was found to be 0.0361 ± 0.043.
Regarding VWVFVLI, the “fold change of barcode share” value was 0.0204 ± 0.025.
VVVFVQI: the “fold change of barcode share” value was found to be 0.0467 ± 0.055.
For the variant WVVFVLI, the “fold change of barcode share” value was 0.0363 ± 0.043.
Consider VVVDVLI, for which the “fold change of barcode share” value turned out to be 0.0348 ± 0.041.
Still for that read-out and setting: to VVAFVLI belongs 0.0209 ± 0.025.
As for AVVFVLI, the “fold change of barcode share” value stood at 0.609 ± 0.85.
In the case of VVQFVLI, the “fold change of barcode share” value was found to be 0.0408 ± 0.052.
On to VQVFVLI, for which the “fold change of barcode share” value is 0.0239 ± 0.029.

The variants in the next data set derive from B2. The data set is described as above. The following applies: with Escherichia coli (laboratory strain); antibiotic: carbenicillin; 2× MIC (3.1 µg/mL). As to the method: as §1
Consider V242W, for which the “fold change of barcode share” value stood at 2.89 ± 0.49.
